This is an account of results in a collection of fitness landscapes (doi:10.1016/j.celrep.2020.107928).

Sequences and labels used below:
B1: Caulobacter ParB omega fusion; a variant is named by its letters at X, in order, B8GW30 (parent)
chain: MESVVVGEPGMSEGRRGLGRGLSALLGEVDAAPAQAPGEQLGGSREAPIEILQRNPDQPRRTFREEDLEDLSNSIREKGVLQPILVRPSPDTAGEYQIVAGERAWRAAQRAGLKTVPIMVRELDDLAVLEIGIIENVQRADLNVLEEALSYKVLMEKFERTQENIAQTIGKSXSHVANXMRLLXLPDEVQSYLVSGELTAXHARAIAAAADPVALAKQIIEGGLSVRETEALARKAPNLSAGKSKGGRPPRVKDTDTQALESDLSSVLGLDVSIDHRGSTGTLTITYATLEQLDDLCNRLTRGI

The full ranking holds about 81,000 sequences; the median of “one-hybrid fitness for binding NBS DNA” is about -0.1, and the highest 2% start at about 0.36. Some of the results follow.

The variants in the assay derive from B1. Kind of assay: one-hybrid fitness for binding NBS DNA (the Noc-binding site; scaled: cognate 1, non-cognate 0); higher = stronger binding. The note with it: with NBS DNA site. In a few lines:
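Fitness here means the log change in variant-to-wild-type read ratio between plasmids sequenced before and after selection. That scale was set so cognate equals 1 and non-cognate equals 0. The selection was a bacterial one-hybrid screen of Caulobacter ParB libraries, four specificity codons randomised, in E. coli USO carrying a HIS3 reporter with the site 19 bp from the promoter, grown 48 hours at 37°C on M9-minus-histidine with 0.1 mM IPTG and 5 mM 3-AT.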
Regarding TTNN, the “one-hybrid fitness for binding NBS DNA” value was at most 0.2.

GRQW: the “one-hybrid fitness for binding NBS DNA” value was at most 0.2.

For GGSD, the “one-hybrid fitness for binding NBS DNA” value was at most 0.2.

Take TSPQ: the “one-hybrid fitness for binding NBS DNA” value was at most 0.2.

Consider PNEL, for which the “one-hybrid fitness for binding NBS DNA” value was at most 0.2.

With MPFS, the “one-hybrid fitness for binding NBS DNA” value is at most 0.2.

Regarding VAIR, the “one-hybrid fitness for binding NBS DNA” value is at most 0.2.

WSLR: the “one-hybrid fitness for binding NBS DNA” value is at most 0.2.

For DGPW, the “one-hybrid fitness for binding NBS DNA” value was at most 0.2.

Consider IIVL, for which the “one-hybrid fitness for binding NBS DNA” value is at most 0.2.

With GAQI, the “one-hybrid fitness for binding NBS DNA” value was at most 0.2.

On to LVYF, for which the “one-hybrid fitness for binding NBS DNA” value is at most 0.2.

For RIAV, the “one-hybrid fitness for binding NBS DNA” value was at most 0.2.

Take NVVV: the “one-hybrid fitness for binding NBS DNA” value is at most 0.2.

Turning to SWRT, the “one-hybrid fitness for binding NBS DNA” value is at most 0.2.

Take NGSL: the “one-hybrid fitness for binding NBS DNA” value was at most 0.2.

Regarding KSTV, the “one-hybrid fitness for binding NBS DNA” value was at most 0.2.

In the case of QPHE, the “one-hybrid fitness for binding NBS DNA” value is at most 0.2.

As for QPNP, the “one-hybrid fitness for binding NBS DNA” value is at most 0.2.

On to LLWN, for which the “one-hybrid fitness for binding NBS DNA” value is at most 0.2.

For AMQN, the “one-hybrid fitness for binding NBS DNA” value was at most 0.2.

For WPHG, the “one-hybrid fitness for binding NBS DNA” value was at most 0.2.

Take RVQN: the “one-hybrid fitness for binding NBS DNA” value is at most 0.2.

For RQTL, the “one-hybrid fitness for binding NBS DNA” value is at most 0.2.

For YMAR, the “one-hybrid fitness for binding NBS DNA” value is at most 0.2.

Regarding GPVK, the “one-hybrid fitness for binding NBS DNA” value was at most 0.2.

WIMS: the “one-hybrid fitness for binding NBS DNA” value is at most 0.2.

Consider VHSW, for which the “one-hybrid fitness for binding NBS DNA” value was at most 0.2.

For EFYK, the “one-hybrid fitness for binding NBS DNA” value was at most 0.2.

For the variant LNGG, the “one-hybrid fitness for binding NBS DNA” value is at most 0.2.

As for AYRE, the “one-hybrid fitness for binding NBS DNA” value was at most 0.2.

With RFRL, the “one-hybrid fitness for binding NBS DNA” value was at most 0.2.

As for TMCI, the “one-hybrid fitness for binding NBS DNA” value is at most 0.2.

With NGSP, the “one-hybrid fitness for binding NBS DNA” value was at most 0.2.

Consider SLFG, for which the “one-hybrid fitness for binding NBS DNA” value was at most 0.2.

For PHIY, the “one-hybrid fitness for binding NBS DNA” value is at most 0.2.

Turning to SSKF, the “one-hybrid fitness for binding NBS DNA” value was at most 0.2.

As to NVHT, the “one-hybrid fitness for binding NBS DNA” value is at most 0.2.

For the variant PRLH, the “one-hybrid fitness for binding NBS DNA” value was at most 0.2.

RLWN: the “one-hybrid fitness for binding NBS DNA” value is at most 0.2.

On to DQQS, for which the “one-hybrid fitness for binding NBS DNA” value was at most 0.2.

Turning to YQVV, the “one-hybrid fitness for binding NBS DNA” value is at most 0.2.

With CIKC, the “one-hybrid fitness for binding NBS DNA” value was at most 0.2.

Take RVDD: the “one-hybrid fitness for binding NBS DNA” value was at most 0.2.

With QLKK, the “one-hybrid fitness for binding NBS DNA” value was 0.346.

Take ACNI: the “one-hybrid fitness for binding NBS DNA” value was at most 0.2.

Turning to NDFR, the “one-hybrid fitness for binding NBS DNA” value was at most 0.2.

In the case of RNVA, the “one-hybrid fitness for binding NBS DNA” value was at most 0.2.

Consider FNTM, for which the “one-hybrid fitness for binding NBS DNA” value was at most 0.2.

Turning to CIER, the “one-hybrid fitness for binding NBS DNA” value is at most 0.2.

DHKT: the “one-hybrid fitness for binding NBS DNA” value was at most 0.2.

On to AFNS, for which the “one-hybrid fitness for binding NBS DNA” value was at most 0.2.

PSHL: the “one-hybrid fitness for binding NBS DNA” value was at most 0.2.

On to SPNT, for which the “one-hybrid fitness for binding NBS DNA” value was at most 0.2.

On to HALV, for which the “one-hybrid fitness for binding NBS DNA” value was at most 0.2.

As for SIRH, the “one-hybrid fitness for binding NBS DNA” value was at most 0.2.

With SPST, the “one-hybrid fitness for binding NBS DNA” value was at most 0.2.

For the variant RPNL, the “one-hybrid fitness for binding NBS DNA” value was at most 0.2.

As for DQPM, the “one-hybrid fitness for binding NBS DNA” value is at most 0.2.

Turning to STRR, the “one-hybrid fitness for binding NBS DNA” value was found to be 0.244.

With ARSN, the “one-hybrid fitness for binding NBS DNA” value was at most 0.2.

Take QCCC: the “one-hybrid fitness for binding NBS DNA” value was at most 0.2.

RGCF: the “one-hybrid fitness for binding NBS DNA” value was at most 0.2.

On to EKER, for which the “one-hybrid fitness for binding NBS DNA” value was at most 0.2.

TAIT: the “one-hybrid fitness for binding NBS DNA” value was at most 0.2.

As for PDTE, the “one-hybrid fitness for binding NBS DNA” value is at most 0.2.

As to GADV, the “one-hybrid fitness for binding NBS DNA” value was at most 0.2.

On to EIAT, for which the “one-hybrid fitness for binding NBS DNA” value is at most 0.2.

Turning to TIHC, the “one-hybrid fitness for binding NBS DNA” value is at most 0.2.

Regarding VYSN, the “one-hybrid fitness for binding NBS DNA” value was at most 0.2.

VATG: the “one-hybrid fitness for binding NBS DNA” value is at most 0.2.

Take ASKY: the “one-hybrid fitness for binding NBS DNA” value was at most 0.2.

DLPY: the “one-hybrid fitness for binding NBS DNA” value was at most 0.2.

On to ACHK, for which the “one-hybrid fitness for binding NBS DNA” value is at most 0.2.

For ALYC, the “one-hybrid fitness for binding NBS DNA” value was at most 0.2.

Turning to SNGV, the “one-hybrid fitness for binding NBS DNA” value is at most 0.2.

As for HFKT, the “one-hybrid fitness for binding NBS DNA” value is at most 0.2.

For the variant RKIN, the “one-hybrid fitness for binding NBS DNA” value was at most 0.2.

Consider GVGT, for which the “one-hybrid fitness for binding NBS DNA” value is at most 0.2.

As to TSTV, the “one-hybrid fitness for binding NBS DNA” value is at most 0.2.

Consider RPYD, for which the “one-hybrid fitness for binding NBS DNA” value is at most 0.2.

For the variant PKMN, the “one-hybrid fitness for binding NBS DNA” value is at most 0.2.

As for QSTA, the “one-hybrid fitness for binding NBS DNA” value came out at 0.219.

As to KEHT, the “one-hybrid fitness for binding NBS DNA” value is at most 0.2.
